Experimental data from ChEMBL document CHEMBL4888484, “Replenishing the malaria drug discovery pipeline: Screening and hit evaluation of the MMV Hit Generation Library 1 (HGL1) against asexual blood stage Plasmodium falciparum ,using a nano luciferase reporter read-out” (2022).
Out of some 150,000 compounds screened, about 540 (0.36%) showed an effect of 50% or more. This is one part of the list.

Each compound was assayed on Plasmodium falciparum (assay: Primary screen in NF54 nanoGlo assay, in single point, at 2uM, 72h; a lower Z score goes with more inhibition). Settings: timepoint 72 hour.
Type: functional, Erythrocyte

| SMILES | % Inhibition | Z score |
| --- | --- | --- |
| COc1ccc([C@@H]2CCCN2C(=O)c2nc(-c3ccccc3)n(-c3ccccc3)n2)cc1OC | 3% | -0.64 |
| COc1cccc(CN(C)Cc2cc(C)[nH]n2)c1OC[C@@H](O)CN1CCOCC1 | -2% | 0.44 |
| CCCCN(CC(=O)N1CCCN(c2ccc(-c3ccc(OC)c(OC)c3)nn2)CC1)C(=O)c1cccc(F)c1 | -6% | 0.97 |
| CCc1nnc(NCc2cc(COC)cs2)o1 | -14% | 1.34 |
| C[C@H](NCc1nnnn1CC(F)(F)F)c1cccc(C2CC2)c1 | 2% | -0.2 |
| Cc1nn(-c2ccc3nncn3n2)c(C)c1CCC(=O)Nc1ccc(F)cc1 | -16% | 1.96 |
| CC(=O)N1CCC[C@H](NC(=O)c2[nH]cnc2C)C1 | -9% | 1.73 |
| CC1(CN2CCOCC2)CCN(CC(=O)N2CCc3sccc3C2)CC1 | 35% | -4.71 |
| COc1nn(C)cc1NCc1ccncc1 | -6% | 0.79 |
| Cc1cccc(S(=O)(=O)N2CCC(n3cnnc3C3CC3)CC2)c1 | 0% | 0.05 |
| O=c1c2ccccc2nc(-c2cccc(OCc3ccccc3)c2)n1Cc1ccc(F)cc1 | -3% | 0.39 |
| Cn1cccc1[C@H](CNS(=O)(=O)c1ccccc1)N1CCCC1 | -5% | 0.79 |
| NC(=O)c1csc(N2CC[C@H](N3CCCCCC3)[C@@H](O)C2)n1 | 2% | -0.2 |
| CCOc1cc(-c2c(C#N)c(N)nc3c2CNCC3)cc(Cl)c1OCC | 30% | -3.43 |
| CCc1ccccc1OC1CN(C(=O)CN2CC(=O)NC2=O)C1 | -6% | 1.07 |
| COc1cccc(CNC(=O)CCCN2C(=O)CCn3nc(-c4cccn4C)cc32)c1 | -10% | 1.8 |
| O=C(CCCc1ccccc1)N1CC(N(Cc2ccncc2)CC2CC2)C1 | 3% | -0.49 |
| Cc1ccc(NC(=O)Nc2ccc(Cn3cnc(-c4nc(-c5ccc(C)cc5)no4)c3)cc2)cc1 | -13% | 1.67 |
| Cc1cccc(C[C@H](C)NC(=O)c2cnc(N)s2)n1 | -10% | 1.72 |
| Cc1nn(C)c(Cl)c1C(=O)Nc1ccc2ccccc2c1 | 10% | -1.64 |
| COCCn1nc(C(=O)NCCn2ccnc2)c2c1CCOC2 | 1% | -0.1 |
| Cc1cc(OC[C@@H](O)COCc2ccccc2)nnc1C | -2% | 0.42 |

| SMILES | % Inhibition | Z score |
| --- | --- | --- |
| Cc1scc(CNC(=O)N2CCC(N(C)C[C@H](C)O)CC2)c1C | 0% | 0.06 |
| Cc1ccc(Cc2nnn(CCC(=O)Nc3cc(C)on3)n2)cc1 | -5% | 0.61 |
| Cc1ncn(CCNCc2cccc(OC(F)F)c2)c1C | -15% | 1.5 |
| NS(=O)(=O)[C@H]1CCN(C(=O)Nc2ccccc2Oc2ccccc2)C1 | -2% | 0.37 |
| COc1ccc(-n2cc3cnnc(-c4ccccc4)c3n2)cc1 | -2% | 0.3 |
| CCCn1c(=O)c2sc(N3CCCCC3)nc2n(CC(=O)NCc2cccc(OC)c2)c1=O | -26% | 2.29 |
| O=C(CC[C@H]1CCCN(CCO)C1)N1CCN(c2ccccn2)CC1 | -5% | 0.91 |
| CC(=O)N1CCC(C(=O)OCCC#Cc2ccccc2)CC1 | 3% | -0.33 |
| CCOC(=O)c1c(S(=O)(=O)N2CCC[C@H](C(=O)OCC)C2)c(C)n(C)c1C | 2% | -0.35 |
| CN(C)C(=O)[C@H](NC(=O)c1ccc(Oc2ccccc2)o1)c1ccccc1 | 6% | -0.82 |
| CC(C)OC[C@@H](O)CN(C)Cc1nccs1 | -7% | 0.65 |
| COc1ccc(CCn2nnnc2N2CCC(CO)(OC)CC2)cc1 | 0% | -0.01 |
| CC1(C)C(=O)NC(=O)N1CC(=O)Nc1ccc(-c2cnc(C3CC3)o2)cc1 | -3% | 0.36 |
| CS(=O)(=O)[C@H]1CCCN(c2cccc(Br)c2C#N)CC1 | 9% | -1.75 |
| CCc1c(C)sc(NC(=O)C2CCCC2)c1C#N | -16% | 2.24 |
| CCO[C@H]1COC[C@@H]1Nc1ccc(Cl)cn1 | -1% | 0.27 |
| COc1ccccc1-c1nc2cc(N)cc(C(=O)NCCc3cccs3)c2n1C | -5% | 0.56 |
| CCN(CC)C(=O)[C@@H]1CCCN1C(=O)Cc1cccc2ccccc12 | -6% | 0.9 |
| CC[C@@H](C(=O)OC)N(C(=O)c1ncoc1C(C)C)c1ccccc1 | -3% | 0.29 |
| O=C(c1cnc(O)cn1)N1CCc2[nH]nc(-c3cccc(Cl)c3Cl)c2C1 | -2% | 0.3 |
| CC(C)n1ncnc1CN(CC(=O)O)c1ccccc1 | -9% | 1.27 |
| Cc1c(N)cccc1-c1nc2ccc(F)cc2n1C1CC1 | -2% | 0.39 |

| SMILES | % Inhibition | Z score |
| --- | --- | --- |
| N#Cc1ccc(N2CCCn3nc(CCC(=O)N4CCCC4)cc3C2)nc1 | -14% | 1.75 |
| O=C(C1CCN(C2CCN(CCCc3ccccc3)CC2)CC1)N1CCCCCC1 | 3% | -0.48 |
| COc1ccc(-c2nc3c(s2)[C@@H](NC(=O)CC2CCN(C)CC2)CCC3)cc1 | -11% | 1.82 |
| Cc1ccc(C(=O)N(C2CC2)[C@H]2CCNC2)c(O)c1 | -1% | 0.23 |
| O=C1CC2(CCCC2)CN1[C@@H]1c2ccccc2C2(CCNCC2)[C@H]1O | -9% | 1.28 |
| CCn1c([C@@H]2CCCO2)nnc1N(C)Cc1cc(Cl)ccc1F | -4% | 0.83 |
| COCc1nc(CCNC(=O)c2cc(C)n(C)n2)no1 | -4% | 0.53 |
| CCOc1cc(N2CCCC[C@H](N3CCN(C)CC3)C2)ncn1 | -11% | 1.46 |
| COc1ccc(S(=O)(=O)c2c(N)n(Cc3ccc(C)cc3)c3nc4ccccc4nc23)cc1 | -6% | 0.56 |
| Cc1nnc(-c2ccccc2C(=O)Nc2cccc(Cl)c2)o1 | 0% | -0.02 |
| CC[C@H]1CN(S(=O)(=O)c2cccc3nn(C)nc23)CCO1 | -2% | 0.46 |
| COCCNc1nc(CC(=O)NC2CN(C3CC3)CC2C)cs1 (configuration not stated) | 19% | -2.37 |
| O=C(NC1CCCCC1)N1CCCCC[C@@H]1CN1CCOCC1 | -2% | 0.36 |
| O=C(CCCc1ccccc1)N1C2C=CCC1CC2 (configuration not stated) | -4% | 0.68 |
| CN(C[C@H]1COc2ccccc2O1)C(=O)c1ccc(-n2cnnn2)cc1 | -6% | 0.77 |
| NC(=O)CCc1nc(C2CC2)nn1-c1cccc2ccccc12 | -9% | 1.29 |
| COc1cccc(NC(=O)Cn2cc(-c3ccc(C)cc3)c(N3CCOCC3)n2)c1 | -12% | 1.36 |
| Cc1nc(NC(=O)c2csnc2C)n[nH]1 | -16% | 1.42 |
| O=S(=O)(c1ccccc1F)N1CCC[C@@H]1c1nc[nH]n1 | 5% | -0.64 |
| COc1cccc(CN2CCN(c3cccs3)CC2)n1 | -3% | 0.59 |
| Cc1ccc2c(c1)CCCN2C(=O)CCC(=O)c1ccccc1 | -8% | 0.75 |
| COCCOC1CCC(C(=O)N(C)c2ccnc(C)c2)CC1 (configuration not stated) | -11% | 2 |

| SMILES | % Inhibition | Z score |
| --- | --- | --- |
| CC(C)c1ncc(CN2CCOc3c(O)cc(-c4ccc(Cl)cn4)cc3C2)cn1 | -5% | 0.94 |
| CC1CC(NC(=O)NOCc2ccc(F)cc2)CN1C1CC1 (configuration not stated) | -4% | 0.62 |
| CCOc1ccc(N2CC(C(=O)N(CC(F)(F)F)C(C)C3CC3)CC2=O)cc1 (configuration not stated) | -4% | 0.53 |
| CN(CCOc1ccccc1)c1ncnc2[nH]ccc12 | 4% | -0.55 |
| Cc1cccnc1NCCNc1cc(C(C)C)nc(N)n1 | -10% | 1.92 |
| CCn1cc(CN2CCN(CCOC)[C@@H]3CS(=O)(=O)C[C@@H]32)cn1 | 4% | -0.47 |
| Cc1ncc2c(n1)CCCN(CC(=O)NCCC(C)C)C2=O | 2% | -0.24 |
| CCCCN1CCN([C@@H](C(=O)NC2CCCCCC2)c2ccccc2)C(=O)C1=O | -5% | 0.83 |
| N#CCCOC1(C#CC#CC2(OCCC#N)CCCCC2)CCCCC1 | -3% | 0.46 |
| Cn1cnc(C2=NN(CC3CC3)C(=O)C2)c1 | -1% | 0.24 |
| Cc1ccc(C)c(NC(=O)CN2CCCN(c3ccc(C(F)(F)F)cn3)CC2)c1 | -9% | 1.72 |
| C[C@H](O)CN(C1CCCCC1)S(=O)(=O)C1CC1 | -8% | 0.77 |
| CCc1ncc2c(n1)CN(C(=O)c1ccc(Cl)cc1OC)C2 | -4% | 0.68 |
| Cc1cc(O[C@H]2CCN(C)C2=O)ccc1NC(=O)c1ccoc1 | -11% | 0.96 |
| Cc1ccc(CCNS(=O)(=O)c2ccc3c(c2)C(C)(C)C(=O)N3C)cc1 | -8% | 1.44 |
| CCc1csc(CNC(=O)c2sc(OC)nc2C)n1 | -2% | 0.36 |
| Cc1cc(OC2CN(C(=O)c3cc(C)oc3C)C2)n2ncnc2n1 | 16% | -2.05 |
| Fc1ccc(F)c(-c2cncc(CN3CCOCC3)c2)c1 | -12% | 1.46 |
| CCn1nccc1[C@H](C)NC(=O)c1cc(-c2cccc(OC)c2)nc2c1c(C)nn2C | 25% | -2.79 |
| Cn1nc(-c2ccc(-c3cn[nH]c3)cc2)nc1N1CCCCC1 | -4% | 0.64 |
